Assay results from PubChem BioAssay AID686978 (National Center for Advancing Translational Sciences (NCATS), 2013).
Where “and” joins values, the source holds several entries; their conditions need not be identical. Equal entries are not always repeated. The whole screen tested about 420,000 compounds, of which about 64,000 (15%) were called active. Inconclusive results, whose numbers are uncertain, are shown with a selection of clear calls. Calls follow the shape of the dose curve; as a rule, active = well fitted inhibition curve with a large enough effect; inconclusive = small, poorly fitted or top-dose-only effect; inactive = flat fitted curve, though single readings scatter. Where the call is inconclusive, the potency comes from a doubtful curve fit.

Assay: qHTS for Inhibitors of human tyrosyl-DNA phosphodiesterase 1 (TDP1): qHTS in cells in absence of CPT; also: nearly all actives have a fitted effect of over 55% in size
Settings: DT40 Tdp1-/- hTDP1 cells, no CPT, ATP luminescence, 48 h; activity change, negative = growth inhibition: at 46.2 µM (top of the series) unless noted
Method in brief: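 Seeded 400 DT40-hTDP1 cells/well (vehicle DMSO, no 20 nM CPT); pinned compounds; ≥48 hr at 37 °C; CellTiter-Glo luminescence as viability measure.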
% is scaled to controls: 0 for no effect and ±100 for the full control effect; potency is read from the fitted curve at half-maximal effect; tags tell the direction and shape of the fitted curve.

Compound | Potency | activity change, negative = growth inhibition
On1c(-c2ccc(Cl)cc2)nc2ccccc21 | inconclusive: 14.6 µM [inhibitor, partial curve] | 
CC1(C)OC(c2ccccc2)=C/C(=C/C=N/NC(=O)c2ccncc2)O1 | inconclusive: 20.6 µM [inhibitor, single point] | 
COc1cccc2c1cc1c(=O)n(CC(=O)NC3CC3)nc(C)n12 | inconclusive: 0.58 µM [inhibitor, single point] | 
CCOc1ccc(C2Sc3ccccc3NC3=C2C(=O)OC3)cc1 (configuration not stated) | inconclusive: 20 µM [inhibitor, single point] | 
COCc1ccc(C(=O)NC2CC(C)(C)Cc3c2cnn3-c2ccc(OC)cc2)o1 (configuration not stated) | inconclusive: 23.1 µM [inhibitor, single point] | 
CCN(CC)C(=O)C1CCCN(C(=O)c2cc(COc3ccc4ncccc4c3)on2)C1 (configuration not stated) | active: 5.8 µM | 
O=C1CCC(C(=O)N2CCN(c3cnccn3)CC2)CN1CCc1ccccc1 (configuration not stated) |  | inactive: -7.54%
CC(C(=O)NC1CCCC1)N1CCN(S(=O)(=O)c2ccc(C(C)(C)C)cc2)CC1 (configuration not stated) | active: 10.3 µM | 
CSc1nc(Oc2ccc3ccccc3c2)c2ccccc2n1 | inconclusive: 29.1 µM [inhibitor, single point] | 
CC(=O)Oc1ccc(/C=N/NC(=O)c2ccc(N(C)S(=O)(=O)c3ccccc3)cc2)cc1 | inconclusive: 13 µM [inhibitor, single point] | 
CCCCN(CCCC)CC(O)Cn1cc(/C=C/C(=O)c2ccccc2)c2ccccc21 (configuration not stated) | active: 10.3 µM | 
CC(C)(O)C#Cc1ccc([C@@H]2C[C@H]3CN(c4ccccc4)C(=O)[C@]34CCCN24)s1 | inconclusive: 16.4 µM [inhibitor, partial curve] | 
CC(NC(=S)NCc1ccccc1)C12CC3CC(CC(C3)C1)C2 (configuration not stated) |  | inactive: -7.92%
COc1ccc(NC(=O)Cn2nnc(C(=O)NCCc3ccccc3)c2N)c(OC)c1 |  | inactive: 18.6%
CC(=O)NCCNc1nc2cc(-c3ccccc3)sc2c(=O)n1C | inconclusive: 23.1 µM [inhibitor, single point] | 
COc1cc(/C=N/NC(=O)COc2ccc([N+](=O)[O-])cc2)ccc1OCC(=O)N1CCOCC1 | active: 16.4 µM | 
CCn1cc(C(=O)NCc2ccccc2)c(=O)c2cc(F)c(N3CCN(C(=O)c4ccco4)CC3)cc21 | active: 9.2 µM | 
Cc1nnc(SCC(=O)Nc2ccc(Br)cc2)[nH]c1=O |  | inactive: -14.3%
O=C(NNc1cccc(Cl)n1)Nc1ccccc1Cl | inconclusive: 29.1 µM [inhibitor, single point] | 
COc1cccc(-c2nc(CSCC(=O)NCCc3ccc(Cl)cc3)c(C)o2)c1 | inconclusive: 18.4 µM [inhibitor, single point] | 
COc1ccc(CCNC(=O)COc2ccc([N+](=O)[O-])cc2)cc1 | inconclusive: 29.1 µM [inhibitor, single point] | 
Cn1cc(CN2CCN(Cc3ccc4c(c3)OCO4)CC2)c(-c2ccccc2F)n1 | inconclusive: 23.1 µM [inhibitor, single point] | 
CC(=O)c1c(N2CCOCC2)[nH]c(-c2ccccc2)nc1=S | inconclusive: 29.1 µM [inhibitor, single point] | 
CC(C)(CCO)Nc1ncnc2onc(-c3ccc(F)cc3)c12 | inconclusive: 13 µM [inhibitor, partial curve] | 

Compound | Potency | activity change, negative = growth inhibition
Cc1nnc2c(NC(C)C)nc3ccccc3n12 | inconclusive: 32.6 µM [inhibitor, single point] | 
COc1ccc(C(=O)NCC(=O)OCc2ccc(Cl)cc2Cl)cc1OC |  | inactive: -3.56%
O=C(COc1ccccc1C(=O)Nc1ccccc1)Nc1ccccc1Cl | inconclusive: 22.4 µM [inhibitor, single point] | 
CCOCC(=O)Nc1ccc(-c2cn3cccnc3n2)cc1 |  | inactive: -27.2%
CN1CCN(C(=O)/C(=C\c2ccc3c(c2)OCO3)NC(=O)c2cccs2)CC1 |  | inactive: -3.25%
N#Cc1ccc(NC(=O)Nc2cccc(C#N)c2)cc1 | active: 6.51 µM | 
CC(C)(C)C(=O)Nc1cccc(-c2ccc[nH]2)n1 | inconclusive: 2.31 µM [inhibitor, partial curve] | 
CCOC(=O)c1ccccc1NC(=O)COc1ccccc1 |  | inactive: -16.9%
COc1ccc(-c2nnc3ccc(SCc4ccccc4)nn23)cc1 | inconclusive: 29.1 µM [inhibitor, single point] | 
Cc1ccc(NC(=O)CCN2C(=O)C3CCCCC3C2=O)cc1[N+](=O)[O-] (configuration not stated) |  | inactive: -19.3%
Cc1ccc(-c2nc(N3CCN(c4ccccc4Cl)CC3)c3ccccc3n2)cc1 |  | inactive: -17.6%
CCOC(=O)c1ccc(S(=O)(=O)NCC(c2ccc(N(C)C)cc2)c2c[nH]c3ccccc23)cc1 (configuration not stated) | inconclusive: 18.4 µM [inhibitor, single point] | 
O=C(Nc1ccc2c(c1)OCO2)C1Cc2ccccc2CN1S(=O)(=O)c1cccs1 (configuration not stated) | inconclusive: 14.6 µM [inhibitor, partial curve] | 
CC1CCc2sc3ncnc(N4CCN(CCO)CC4)c3c2C1 (configuration not stated) | inconclusive: 4.61 µM [inhibitor, single point] | 
CCCCC(CC)CNC(=O)CCCn1c(=O)[nH]c2ccsc2c1=O (configuration not stated) | inconclusive: 25.9 µM [inhibitor, partial curve, poor fit] | 
COCCn1c(SCC(=O)Nc2cc(C)on2)nc2c([nH]c3ccccc32)c1=O | inconclusive: 4.61 µM [inhibitor, full curve, poor fit] | 
CCCc1nc(-c2cc3ccc(C)cc3[nH]c2=O)no1 |  | inactive: -6.41%
COc1cc(/C=C2/SC(=S)N(CCC(=O)Nc3cccnc3)C2=O)cc(OC)c1OC | inconclusive: 16.4 µM [inhibitor, partial curve] | 
O=C(O)c1cccc(NC(=S)NC(=O)c2ccc3ccccc3c2)c1 |  | inactive: 21.2%
CCC(C(=O)NC1CCCC1)n1c(-c2ccnc3ccccc23)nc2ccccc21 (configuration not stated) | inconclusive: 29.1 µM [inhibitor, single point] | 
CC1=C(C)/C(=N\OC(=O)/C=C/c2ccccc2)C=CC1=O | active: 13 µM | 
CN(C)CCCNc1oc(-c2ccccc2Cl)nc1S(=O)(=O)c1ccccc1 | inconclusive: 10.3 µM [inhibitor, partial curve] | 
COc1ccc(C(=O)NC2=Nc3ccccc3N=C(C)C2c2ccccc2)cc1 (configuration not stated) | inconclusive: 13 µM [inhibitor, partial curve] | 
O=C1C(CSCc2ccccc2)NC(=S)N1c1ccccc1 (configuration not stated) | active: 4.61 µM | 

Compound | Potency | activity change, negative = growth inhibition
COc1cc(CNCC(C)C)cc(Br)c1OCC(=O)Nc1ccccc1 | inconclusive: 18.4 µM [inhibitor, single point] | 
Clc1ccc(CSc2nc3ccncc3[nH]2)cc1 | inconclusive: 18.4 µM [inhibitor, single point] | 
COCCCNC(=O)c1cc2c(=O)n3cccc(C)c3nc2s1 | inconclusive: 18.4 µM [inhibitor, single point] and inconclusive: 14.6 µM [inhibitor, partial curve] | 
Cc1c(C)n(Cc2ccc(Cl)cc2)c2ccc(C(=O)NCCc3ccc(S(N)(=O)=O)cc3)cc12 | active: 25.9 µM | 
NC1=NCCCC1 | active: 2.66 µM | 
CSc1nc2c(c(=O)[nH]1)C(c1ccc(Cl)cc1)CC(=O)N2 (configuration not stated) | inconclusive: 29.1 µM [inhibitor, single point] | 
CC1(C)CN(C2CCCCC2)C(=O)[C@H]1CC(=O)Nc1ccccc1 | inconclusive: 18.4 µM [inhibitor, partial curve] | 
CCCC(=O)Nc1ccc2c(c1)nc(CCNC(=O)c1ccco1)n2C |  | inactive: -9.29%
OC(c1ccccc1)(c1nc(-c2cccc(C(F)(F)F)c2)cs1)C(F)(F)F (configuration not stated) | inconclusive: 29.1 µM [inhibitor, single point] | 
CC(=O)Nc1ccc(N(CC(=O)NC2CCCCC2)C(=O)Cn2nnc(-c3ccccc3)n2)cc1 |  | inactive: 5.15%
COc1cc(Cl)c(C)cc1NC(=O)Cn1c(NCCO)nc2ccccc21 | inconclusive: 10.3 µM [inhibitor, partial curve, poor fit] | 
COc1cccc(-c2cc3nc(NCc4ccc5occc5c4)n(C)c(=O)c3s2)c1 | inconclusive: 29.1 µM [inhibitor, single point] | 
CCn1nc(NC(=O)CC(C)C)c2cc3ccc(C)cc3nc21 | inconclusive: 32.6 µM [inhibitor, single point] | 
Cc1ccnc(NC(=O)c2ccco2)n1 |  | inactive: 5.09%
Nc1nnc(-c2cn(-c3ccccc3)nc2-c2ccccc2)o1 | inconclusive: 29.1 µM [inhibitor, single point] | 
Cc1cccc(NC(=O)N(Cc2cc3cc(C)cc(C)c3[nH]c2=O)CC2COCCO2)c1 (configuration not stated) | active: 16.4 µM | 
O=C(COC(=O)c1c(F)cccc1F)NC(=O)NCc1ccccc1 |  | inactive: -7.83%
O=C(Nc1ccccc1)N1CCN(C2c3ccccc3-c3ccccc32)CC1 | inconclusive: 25.9 µM [inhibitor, single point] | 
Cc1nc(C)c(C(=O)NCc2ccc(Cl)cc2)o1 | inconclusive: 16.4 µM [inhibitor, partial curve] | 
O=S(=O)(Nc1cccc(-c2ccc(N3CCCCC3)nn2)c1)c1cccc(F)c1 |  | inactive: -29.4%
COc1cc(C=CC(=O)OCC=Cc2ccc3c(c2)OCO3)cc(OC)c1OC | inconclusive: 23.1 µM [inhibitor, single point] | 
O=C(CCC(=O)OCCOc1ccccc1)OCCOc1ccccc1 |  | inactive: -7.47%
COc1cccc(CNc2ccc3c(c2)nc(C)n3C)c1OC | inconclusive: 23.1 µM [inhibitor, single point] | 
Cn1c(CCN2CCCC2)nc2cc(NS(=O)(=O)c3ccc(F)cc3)ccc21 | inconclusive: 29.1 µM [inhibitor, single point] | 
